Source: the supplement of paper PMC8728848
The list shows a part of the results.

How the values were obtained:
Experiment in all cases: glycan array binding signal (z-score within array); higher = stronger binding
Conditions in all cases: glycan notation: IUPAC condensed, linker removed
[1] = molecular target: Gal(b1-4)GlcNAc(b1-3)Gal(b1-4)GlcNAc
Method in brief: (§1)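 Glycan array data were curated from 3228 arrays in the Consortium for Functional Glycomics database and kept only where the protein sequence was available. Glycan names were converted to IUPAC-condensed notation, and columns mapping to the same glycan were averaged. The binding signal is a within-array Z-score, averaged across arrays of the same protein sequence at different concentrations or buffers and across linkers. Negative Z-scores can be read as non-binding.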

[2] = molecular target: Gal(b1-4)GlcNAc(b1-3)Gal(b1-4)GlcNAc(b1-3)Gal(b1-4)GlcNAc
Method in brief: as §1

[3] = molecular target: Gal(b1-4)GlcNAc(b1-3)Gal(b1-4)[Fuc(a1-3)]GlcNAc(b1-3)Gal(b1-4)[Fuc(a1-3)]GlcNAc
Method in brief: as §1

[4] = molecular target: Gal(b1-4)GlcNAc(b1-3)GalNAc
Method in brief: as §1

[5] = molecular target: Gal(b1-4)GlcNAc(b1-3)[Gal(b1-4)GlcNAc(b1-6)]Gal(b1-4)GlcNAc
Method in brief: as §1

[6] = molecular target: Gal(b1-4)GlcNAc(b1-3)[Gal(b1-4)GlcNAc(b1-6)]GalNAc
Method in brief: as §1

[7] = molecular target: Gal(b1-4)GlcNAc(b1-3)[GlcNAc(b1-6)]Gal(b1-4)GlcNAc
Method in brief: as §1

[8] = molecular target: Gal(b1-4)GlcNAc(b1-6)Gal(b1-4)GlcNAc
Method in brief: as §1

[9] = molecular target: Gal(b1-4)GlcNAc(b1-6)Gal(b1-4)GlcNAc(b1-6)GalNAc
Method in brief: as §1

[10] = molecular target: Gal(b1-4)GlcNAc(b1-6)GalNAc
Method in brief: as §1

[11] = molecular target: Gal(b1-4)GlcNAc(b1-6)[Gal(b1-3)]GalNAc
Method in brief: as §1

Gal3S(b1-3)GalNAc = molecular target: Gal3S(b1-3)GalNAc
Method in brief: as §1

Gal3S(b1-3)GlcNAc = molecular target: Gal3S(b1-3)GlcNAc
Method in brief: as §1

[12] = molecular target: Gal3S(b1-3)[Fuc(a1-4)]GlcNAc
Method in brief: as §1

Gal3S(b1-4)Glc = molecular target: Gal3S(b1-4)Glc
Method in brief: as §1

Gal3S(b1-4)Glc6S = molecular target: Gal3S(b1-4)Glc6S
Method in brief: as §1

Gal3S(b1-4)GlcNAc = molecular target: Gal3S(b1-4)GlcNAc
Method in brief: as §1

Gal3S(b1-4)GlcNAc6S = molecular target: Gal3S(b1-4)GlcNAc6S
Method in brief: as §1

[13] = molecular target: Gal3S(b1-4)[Fuc(a1-3)]Glc
Method in brief: as §1

Gal3S4S(b1-4)GlcNAc = molecular target: Gal3S4S(b1-4)GlcNAc
Method in brief: as §1

Gal3S6S(b1-4)GlcNAc = molecular target: Gal3S6S(b1-4)GlcNAc
Method in brief: as §1

Gal3S6S(b1-4)GlcNAc6S = molecular target: Gal3S6S(b1-4)GlcNAc6S
Method in brief: as §1

Gal4S(b1-4)GlcNAc = molecular target: Gal4S(b1-4)GlcNAc
Method in brief: as §1

Gal4S6S(b1-4)GlcNAc = molecular target: Gal4S6S(b1-4)GlcNAc
Method in brief: as §1

Gal6S(b1-4)Glc = molecular target: Gal6S(b1-4)Glc
Method in brief: as §1

Gal6S(b1-4)Glc6S = molecular target: Gal6S(b1-4)Glc6S
Method in brief: as §1

Gal6S(b1-4)GlcNAc = molecular target: Gal6S(b1-4)GlcNAc
Method in brief: as §1

Gal6S(b1-4)GlcNAc6S = molecular target: Gal6S(b1-4)GlcNAc6S
Method in brief: as §1

GalNAc(a1-3)Gal = molecular target: GalNAc(a1-3)Gal
Method in brief: as §1

GalNAc(a1-3)GalNAc = molecular target: GalNAc(a1-3)GalNAc
Method in brief: as §1

GalNAc(b1-3)Gal = molecular target: GalNAc(b1-3)Gal
Method in brief: as §1

[14] = molecular target: GalNAc(b1-3)Gal(a1-4)Gal(b1-4)GlcNAc
Method in brief: as §1

GalNAc(b1-3)GalNAc = molecular target: GalNAc(b1-3)GalNAc
Method in brief: as §1

GalNAc(b1-4)GlcNAc = molecular target: GalNAc(b1-4)GlcNAc
Method in brief: as §1

Glc(a1-4)Glc = molecular target: Glc(a1-4)Glc
Method in brief: as §1

Glc(a1-6)Glc(a1-6)Glc = molecular target: Glc(a1-6)Glc(a1-6)Glc
Method in brief: as §1

Glc(b1-4)Glc = molecular target: Glc(b1-4)Glc
Method in brief: as §1

Glc(b1-6)Glc = molecular target: Glc(b1-6)Glc
Method in brief: as §1

GlcA(b1-3)Gal = molecular target: GlcA(b1-3)Gal
Method in brief: as §1

GlcA(b1-3)GlcNAc = molecular target: GlcA(b1-3)GlcNAc
Method in brief: as §1

GlcA(b1-6)Gal = molecular target: GlcA(b1-6)Gal
Method in brief: as §1

[15] = molecular target: GlcNAc(a1-3)Gal(b1-4)GlcNAc
Method in brief: as §1

[16] = molecular target: GlcNAc(a1-6)Gal(b1-4)GlcNAc
Method in brief: as §1

[17] = molecular target: GlcNAc(b1-2)Gal(b1-3)GalNAc
Method in brief: as §1

[18] = molecular target: GlcNAc(b1-2)Man(a1-3)[GlcNAc(b1-2)Man(a1-6)]Man(b1-4)GlcNAc(b1-4)GlcNAc
Method in brief: as §1

GlcNAc(b1-3)Gal = molecular target: GlcNAc(b1-3)Gal
Method in brief: as §1

[19] = molecular target: GlcNAc(b1-3)Gal(b1-3)GalNAc
Method in brief: as §1

GlcNAc(b1-3)Gal(b1-4)Glc = molecular target: GlcNAc(b1-3)Gal(b1-4)Glc
Method in brief: as §1

[20] = molecular target: GlcNAc(b1-3)Gal(b1-4)GlcNAc
Method in brief: as §1

[21] = molecular target: GlcNAc(b1-3)Gal(b1-4)GlcNAc(b1-3)Gal(b1-4)GlcNAc
Method in brief: as §1

GlcNAc(b1-3)GalNAc = molecular target: GlcNAc(b1-3)GalNAc
Method in brief: as §1

GlcNAc(b1-3)Man = molecular target: GlcNAc(b1-3)Man
Method in brief: as §1

[22] = molecular target: GlcNAc(b1-3)[GlcNAc(b1-4)][GlcNAc(b1-6)]GlcNAc
Method in brief: as §1

[23] = molecular target: GlcNAc(b1-3)[GlcNAc(b1-6)]Gal(b1-4)GlcNAc
Method in brief: as §1

[24] = molecular target: GlcNAc(b1-3)[GlcNAc(b1-6)]GalNAc
Method in brief: as §1

[25] = molecular target: GlcNAc(b1-3)[GlcNAc(b1-6)]GlcNAc(b1-4)GlcNAc
Method in brief: as §1

[26] = molecular target: GlcNAc(b1-4)Gal(b1-4)GlcNAc
Method in brief: as §1

GlcNAc(b1-4)GlcNAc = molecular target: GlcNAc(b1-4)GlcNAc
Method in brief: as §1

[27] = molecular target: GlcNAc(b1-4)GlcNAc(b1-4)GlcNAc
Method in brief: as §1

[28] = molecular target: GlcNAc(b1-4)GlcNAc(b1-4)GlcNAc(b1-4)GlcNAc(b1-4)GlcNAc
Method in brief: as §1

B1: E-Selectin (Homo sapiens), P16581 (protein)
chain: MIASQFLSALTLVLLIKESGAWSYNTSTEAMTYDEASAYCQQRYTHLVAIQNKEEIEYLNSILSYSPSYYWIGIRKVNNVWVWVGTQKPLTEEAKNWAPGEPNNRQKDEDCVEIYIKREKDVGMWNDERCSKKKLALCYTAACTNTSCSGHGECVETINNYTCKCDPGFSGLKCEQIVNCTALESPEHGSLVCSHPLGNFSYNSSCSISCDRGYLPSSMETMQCMSSGEWSAPIPACNVVECDAVTNPANGFVECFQNPGSFPWNTTCTFDCEEGFELMGAQSLQCTSSGNWDNEKPTCKAVTCRAVRQPQNGSVRCSHSPAGEFTFKSSCNFTCEEGFMLQGPAQVECTTQGQWTQQIPVCEAFQCTALSNPERGYMNCLPSASGSFRYGSSCEFSCEQGFVLKGSKRLQCGPTGEWDNEKPTCEAVRCDAVHQPPKGLVRCAHSPIGEFTYKSSCAFSCEEGFELHGSTQLECTSQGQWTEEVPSCQVVKCSSLAVPGKINMSCSGEPVFGTVCKFACPEGWTLNGSAARTCGATGHWSGLLPTCEAPTESNIPLVAGLSAAGLSLLTLAPFLLWLRKCLRKAKKFVPASSCQSLESDGSYQKPSYIL
[1]
  glycan array binding signal (z-score): -0.119
[2]
  glycan array binding signal (z-score): -0.072
[3]
  glycan array binding signal (z-score): -0.22
[4]
  glycan array binding signal (z-score): -0.331
[5]
  glycan array binding signal (z-score): -0.176
[6]
  glycan array binding signal (z-score): -0.14
[7]
  glycan array binding signal (z-score): -0.027
[8]
  glycan array binding signal (z-score): -0.057
[9]
  glycan array binding signal (z-score): -0.151
[10]
  glycan array binding signal (z-score): -0.213
[11]
  glycan array binding signal (z-score): -0.218
Gal3S(b1-3)GalNAc
  glycan array binding signal (z-score): -0.045
Gal3S(b1-3)GlcNAc
  glycan array binding signal (z-score): 0.086
[12]
  glycan array binding signal (z-score): 1.21
Gal3S(b1-4)Glc
  glycan array binding signal (z-score): -0.07
Gal3S(b1-4)Glc6S
  glycan array binding signal (z-score): 0.304
Gal3S(b1-4)GlcNAc
  glycan array binding signal (z-score): 0.18
Gal3S(b1-4)GlcNAc6S
  glycan array binding signal (z-score): -0.005
[13]
  glycan array binding signal (z-score): 0.178
Gal3S4S(b1-4)GlcNAc
  glycan array binding signal (z-score): 0.606
Gal3S6S(b1-4)GlcNAc
  glycan array binding signal (z-score): 0.324
Gal3S6S(b1-4)GlcNAc6S
  glycan array binding signal (z-score): 0.727
Gal4S(b1-4)GlcNAc
  glycan array binding signal (z-score): 0.303
Gal4S6S(b1-4)GlcNAc
  glycan array binding signal (z-score): 0.276
Gal6S(b1-4)Glc
  glycan array binding signal (z-score): -0.044
Gal6S(b1-4)Glc6S
  glycan array binding signal (z-score): 0.338
Gal6S(b1-4)GlcNAc
  glycan array binding signal (z-score): 0.073
Gal6S(b1-4)GlcNAc6S
  glycan array binding signal (z-score): 0.433
GalNAc(a1-3)Gal
  glycan array binding signal (z-score): -0.247
GalNAc(a1-3)GalNAc
  glycan array binding signal (z-score): -0.108
GalNAc(b1-3)Gal
  glycan array binding signal (z-score): -0.199
[14]
  glycan array binding signal (z-score): -0.22
GalNAc(b1-3)GalNAc
  glycan array binding signal (z-score): -0.269
GalNAc(b1-4)GlcNAc
  glycan array binding signal (z-score): -0.214
Glc(a1-4)Glc
  glycan array binding signal (z-score): -0.137
Glc(a1-6)Glc(a1-6)Glc
  glycan array binding signal (z-score): -0.281
Glc(b1-4)Glc
  glycan array binding signal (z-score): -0.263
Glc(b1-6)Glc
  glycan array binding signal (z-score): -0.134
GlcA(b1-3)Gal
  glycan array binding signal (z-score): -0.144
GlcA(b1-3)GlcNAc
  glycan array binding signal (z-score): -0.029
GlcA(b1-6)Gal
  glycan array binding signal (z-score): -0.104
[15]
  glycan array binding signal (z-score): -0.261
[16]
  glycan array binding signal (z-score): -0.194
[17]
  glycan array binding signal (z-score): -0.209
[18]
  glycan array binding signal (z-score): -0.172
GlcNAc(b1-3)Gal
  glycan array binding signal (z-score): -0.024
[19]
  glycan array binding signal (z-score): -0.311
GlcNAc(b1-3)Gal(b1-4)Glc
  glycan array binding signal (z-score): -0.195
[20]
  glycan array binding signal (z-score): -0.142
[21]
  glycan array binding signal (z-score): -0.007
GlcNAc(b1-3)GalNAc
  glycan array binding signal (z-score): -0.266
GlcNAc(b1-3)Man
  glycan array binding signal (z-score): -0.273
[22]
  glycan array binding signal (z-score): -0.261
[23]
  glycan array binding signal (z-score): -0.152
[24]
  glycan array binding signal (z-score): -0.221
[25]
  glycan array binding signal (z-score): -0.105
[26]
  glycan array binding signal (z-score): -0.19
GlcNAc(b1-4)GlcNAc
  glycan array binding signal (z-score): -0.169
[27]
  glycan array binding signal (z-score): -0.067
[28]
  glycan array binding signal (z-score): -0.047
